Reference: PubChem BioAssay AID651815 (National Center for Advancing Translational Sciences (NCATS), 2012)
The campaign covered roughly 2,100 compounds. About 1,100 (52%) were called active. So high a share suggests a set chosen from earlier hits. This list was built around the results that the source calls inconclusive (neither active nor inactive); the mix of calls is not that of the screen. Calls follow the shape of the dose curve; as a rule, active = well fitted inhibition curve with a large enough effect; inconclusive = small, poorly fitted or top-dose-only effect; inactive = no such curve, though single readings can be large or run the other way. No potency is given beside an inconclusive call; the fits are too rough.

The compounds below were run against DNA dC->dU-editing enzyme APOBEC-3F (Homo sapiens) (UniProt Q8IUX4) (assay: qHTS for inhibitors of Vif-A3F interactions: Cherry picks counterscreen). Details: HeLa A3F-eYFP/Vif cells, eYFP fluorescence, 24 h; series mostly up to 46.1 µM; activity, negative = inhibitor: at the top concentration.
Summary of the method: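 Rescue of Vif-driven A3F-eYFP degradation read as cellular eYFP fluorescence after 24 h compound exposure (several concentrations) in stable HeLa cells; MG132 (2 mM stock) as positive control.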
% is scaled to controls: 0 for no effect and ±100 for the full control effect; potency is read from the fitted curve at half-maximal effect; tags tell the direction and shape of the fitted curve.
Also: nearly all actives have a fitted effect of over 65% in size.

UniProt Q8IUX4, sequence (Q8IUX4 whole entry, looked up): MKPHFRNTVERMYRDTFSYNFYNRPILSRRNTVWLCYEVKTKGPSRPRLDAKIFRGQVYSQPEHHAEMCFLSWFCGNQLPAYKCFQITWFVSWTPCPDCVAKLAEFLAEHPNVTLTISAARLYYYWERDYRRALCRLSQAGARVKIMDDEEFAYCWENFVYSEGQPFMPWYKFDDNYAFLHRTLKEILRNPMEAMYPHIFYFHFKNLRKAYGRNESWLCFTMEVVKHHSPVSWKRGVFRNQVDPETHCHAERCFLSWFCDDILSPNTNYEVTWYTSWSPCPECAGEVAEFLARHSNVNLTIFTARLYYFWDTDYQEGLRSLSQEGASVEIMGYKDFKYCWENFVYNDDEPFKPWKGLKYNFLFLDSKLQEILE

Row | SMILES | Potency | activity, negative = inhibitor
1 | Cn1ccnc1Sc1nc2ccccc2nc1NS(=O)(=O)c1ccccc1 | active: 16.4 µM | 
2 | Cc1ccc2nc3c(cc(S(=O)(=O)c4ccccc4)c(=N)n3Cc3ccco3)c(=O)n2c1 |  | inactive: -23%
3 | COc1ccccc1CNC(=O)c1ccc(Nc2nc3ccccc3n3nnnc23)cc1 | active: 23.1 µM | 
4 | CCCCOc1nc2ccccc2nc1NS(=O)(=O)c1ccc(F)cc1 | inconclusive [inhibitor, single point] | 
5 | Cc1cc(C)c(NC(=O)Cn2c(=O)n(Cc3ccc(C(=O)NCc4ccco4)cc3)c(=O)c3sccc32)c(C)c1 | inconclusive [inhibitor, single point] | 
6 | O=C(c1ccccc1)C1C(=O)c2ccccc2C1=O |  | inactive: 11.3%
7 | O=C(NCc1cccnc1)c1cccc(NS(=O)(=O)c2ccc(Br)cc2)c1 | active: 6.27 µM | 
8 | CC(NC1=CC(=O)c2cccnc2C1=O)C(O)c1ccccc1 (configuration not stated) | inconclusive [inhibitor, single point] | 
9 | Cn1c(=O)[nH]c(=O)c2c1nc(Br)n2Cc1cccc(Br)c1 | active: 9.94 µM | 
10 | CCN(CC)c1ccc(NC(=O)c2ccc(=O)[nH]c2)cc1S(=O)(=O)Nc1ccccc1OC | inconclusive [inhibitor, partial curve] | 
11 | CN(C)S(=O)(=O)c1ccc(N2CCCC2)c(C(=O)N2CCN(S(=O)(=O)c3ccc(F)c(F)c3)CC2)c1 |  | inactive: 7.98% [at 36.9 µM]
12 | COc1cccc(N2CC(O)=C(c3nc4ccccc4c(=O)[nH]3)C2=N)c1 | inconclusive [inhibitor, full curve] | 
13 | C=CCN=c1scc(-c2ccc(F)cc2)n1/N=C/c1ccccn1 |  | inactive: -0.0772%
14 | C/C(CCC(C)C)=N\NC(=S)NCc1ccccc1 |  | inactive: 0.97%
15 | COc1ccc(C(=O)N/N=C/c2cc(Br)ccc2O)cc1OC |  | inactive: 16.9%
16 | NC(=O)c1cccc(-c2ccnc3c2CC(C(=O)NCc2ccco2)O3)c1 (configuration not stated) | inconclusive [inhibitor, single point] | 
17 | CCC/C=N/NC(=O)c1[nH]c2c([N+](=O)[O-])cccc2c1C | inconclusive [inhibitor, single point] | 
18 | COC1=C(Br)C(=O)c2ncccc2C1=O | inconclusive [inhibitor, single point] | 
19 | COc1ccc(OC)c(NCc2cccn2-c2nnc(N3CCC(C)CC3)s2)c1 | inconclusive [inhibitor, partial curve] | 
20 | COc1ccc(-c2c(C#N)c(N)nc(Sc3ccc(Cl)cc3)c2C#N)cc1 | inconclusive [inhibitor, partial curve, poor fit] | 
21 | Cc1cc(NC(=O)COC(=O)c2ccc(S(=O)(=O)N3CCCc4ccccc43)cc2)no1 | inconclusive [inhibitor, full curve] | 
22 | Cc1ccc2nc(NS(=O)(=O)c3ccc(Cl)cc3)c(Nc3ccc(C(=O)O)cc3)nc2c1 | active: 14.6 µM | 
23 | COc1cc(/C=C/C(=O)c2ccc(O)cc2)ccc1OCC#N | inconclusive [inhibitor, single point] | 
24 | Cc1c(C(=O)Nc2cccnc2)oc2ccc(Br)cc12 | inconclusive [inhibitor, single point] | 

Row | SMILES | Potency | activity, negative = inhibitor
25 | O=C(NCc1ccccc1)C1Cc2c(-c3ccc(Cl)cc3)ccnc2O1 (configuration not stated) | inconclusive [inhibitor, full curve, poor fit] | 
26 | COC(=O)[C@@H]1Cc2c([nH]c3ccccc23)C(C)(C)N1C(=O)CCl | inconclusive [inhibitor, single point] | 
27 | Cn1cc(/C=C/c2ccnc3ccccc23)c2ccccc21 | inconclusive [inhibitor, single point] | 
28 | CCc1ccc2c(c1)NC(=O)C2(C)Cc1ccccc1Cl (configuration not stated) | inconclusive [inhibitor, partial curve] | 
29 | COc1ccc(C(=O)c2cc([N+](=O)[O-])ccc2N2CCCC2)cc1 | inconclusive [inhibitor, full curve] | 
30 | O=C(CSc1n[nH]c(-c2ccccn2)n1)Nc1ccc(Cl)cc1 |  | inactive: 28.8%
31 | CC(=O)c1cc2c(cc1NS(=O)(=O)c1ccc(C)cc1)OCCO2 | inconclusive [inhibitor, partial curve, poor fit] | 
32 | Cc1cc(N=Cc2c(O)n(-c3ccc4c(c3)OCO4)c(=O)c3ccccc23)ccn1 | inconclusive [inhibitor, single point] | 
33 | Cn1cccc1/C=C1\SC(=O)N(c2ccc(O)cc2)C1=O | inconclusive [inhibitor, single point] | 
34 | Cc1ccc2c(Cl)c(C)c(N3CCCC3)nc2n1 |  | inactive: -2.84%
35 | Cc1nc2c3ccccc3n(Cc3ccccc3F)c2s1 | active: 17.7 µM | 
36 | Cc1cc(NC(=O)CSc2nc(-c3cccs3)nc3ccccc23)no1 | active: 0.994 µM | 
37 | COc1cccc(NC(=O)Nc2nc(-c3ccc(OC)c(OC)c3)cs2)c1 | inconclusive [inhibitor, partial curve] | 
38 | Cc1sc2nc(CSc3nnnn3-c3ccc(Cl)cc3)[nH]c(=O)c2c1C |  | inactive: -21.8%
39 | Fc1ccc(COc2ccc3ccccc3c2CNc2nn[nH]n2)cc1 | active: 19.8 µM | 
40 | C=CCn1c(O)c(N=NC(=O)CNC(=O)c2ccco2)c2ccccc21 | active: 11.2 µM | 
41 | Cc1[nH]c2ccccc2c1/C=N/NC(=O)c1cc(-c2ccncc2)nc2ccccc12 | inconclusive [inhibitor, full curve, poor fit] | 
42 | CCN(CC)c1ccc2cc(-c3nc(-c4cccs4)no3)c(=O)oc2c1 | active: 0.291 µM | 
43 | CCn1cc2nc(SCC(=O)Nc3ccc(C)cc3C)n(Cc3ccc(C)cc3)c(=O)c2n1 | inconclusive [inhibitor, full curve] | 
44 | O=C1C=CC(O)(c2cc(=O)c3c(O)cc(O)cc3o2)C=C1 | inconclusive [inhibitor, full curve] | 
45 | Cc1ccc(C)c(C2NC(=O)c3ccccc3N2)c1 (configuration not stated) | inconclusive [inhibitor, full curve] | 
46 | Cc1ccc(C(=O)O)cc1Nc1nc2ccccc2n2nnnc12 | inconclusive [inhibitor, single point] | 
47 | COc1ccccc1Nc1nnc(SCC2CCCCO2)s1 (configuration not stated) | active: 14 µM | 
48 | CCOc1ccc(/C=N/NC(=O)c2cc3c(OC)cc(OC)c(OC)c3[nH]2)cc1 | inconclusive [inhibitor, single point] | 

Row | SMILES | Potency | activity, negative = inhibitor
49 | O=C(N/N=C/c1c(O)n(-c2ccc(Cl)cn2)c(=O)c2ccccc12)c1ccncc1 |  | inactive: -29.3%
50 | COc1ccccc1N1CCN(c2ncnc3c2oc2ccccc23)CC1 | inconclusive [inhibitor, single point] | 
51 | CC(=O)Nc1ccc(S(=O)(=O)N2CCSc3ccccc32)cc1 | active: 2.5 µM | 
52 | Cc1ccc(-c2nc3sc(C#N)c(N)n3c(=O)c2C#N)cc1 | inconclusive [inhibitor, single point] | 
53 | Cc1c(=O)n(OCc2ccc(Cl)cc2)c2ccccc2[n+]1[O-] |  | inactive: -16.2% [at 36.9 µM]
54 | C=C(C(=O)c1ccccc1)C(NC(C)(C)C)c1ccccc1 (configuration not stated) | inconclusive [inhibitor, partial curve] | 
55 | COc1cc2nc(SCC(=O)NCc3ccco3)n(Cc3ccc(Cl)cc3)c(=O)c2cc1OC | inconclusive [inhibitor, single point] | 
56 | COC(=O)c1nnn(-c2nonc2N)c1CN1CCc2ccccc21 | inconclusive [inhibitor, single point] | 
57 | CCOc1cc(/C=C(\C#N)c2nc(-c3cccs3)c(NC(C)=O)s2)ccc1O |  | inactive: 39.2%
58 | Cc1ccc(Cn2nnc3c(=O)n(CC(=O)NCc4ccccc4)cnc32)cc1 | active: 14 µM | 
59 | Cc1ccc(S(=O)(=O)C(C#N)c2nc3ccccc3nc2N2CCCC2)cc1 (configuration not stated) | inconclusive [inhibitor, single point] | 
60 | Cc1ccccc1NCC(=O)N=Nc1c(O)[nH]c2ccc([N+](=O)[O-])cc12 |  | inactive: -10% [at 36.9 µM]
61 | OCCCn1c(C2CCCN2c2nc(-c3ccc(Cl)cc3)cs2)nc2cc(Cl)c(Cl)cc21 (configuration not stated) |  | inactive: -7.33%
62 | COc1cc(/C=C2\SC(=S)N(NC(=O)c3ccccc3O)C2=O)ccc1O | inconclusive [inhibitor, single point] | 
63 | COc1cc(-c2nc3ccc(C)cn3c2NCc2ccccc2)ccc1SC1CCCCC1 |  | inactive: 0.399% [at 36.9 µM]
64 | Cc1ccc2nc(NC(=O)CN(C)S(=O)(=O)c3cccc4nsnc34)sc2c1 | inconclusive [inhibitor, full curve] | 
65 | Cc1cc(NC(=O)Nc2nnc(N(C)Cc3ccccc3)s2)ccc1Br |  | inactive: 0.433%
66 | Cc1ccc(O)c(NC(=O)c2cc(-c3ccccc3O)no2)c1 | active: 20.6 µM | 
67 | COc1cc(Cn2c3ccc(NC(=O)CCc4ccccc4)cc3c(=O)n2C)ccc1F | inconclusive [inhibitor, full curve] | 
68 | COc1ccc(C(=O)/C=C2/c3ccccc3CC(C)(C)N2C)cc1 | inconclusive [inhibitor, full curve] | 
69 | COC(=O)C1C2CC3c4[nH]c5cc(OC)ccc5c4CCN3CC2CC(OC(=O)CC(C)=O)C1OC (configuration not stated) | active: 18.4 µM | 
70 | COc1cc(/C=C/C(C)=NNc2ccccc2)ccc1O | inconclusive [inhibitor, partial curve] | 
71 | CC(=O)Nc1ccc(-c2ccnc3c2CC(C(=O)NCc2cccc(Cl)c2)O3)cc1 (configuration not stated) | active: 3.53 µM | 
72 | N#Cc1cccn1-c1nccc(-c2cccs2)n1 | inconclusive [inhibitor, single point] | 
